Reference: article PMC5892938
The other results are listed elsewhere or left out. At the low end of the ranking, values are background and their order means little.

biological target: GST-SBP-SLBP (stem-loop binding protein) (UniProt Q14493); assay: targeted RNA Bind-n-Seq; details: RBNS binding buffer: 25 mM Tris pH 7.5, 150 mM KCl, 3 mM MgCl2, 0.1% Tween, 0.5 mg/mL BSA, 1 mM DTT; 27 nM protein, 750 pM RNA pool; temperature not stated; high values mean tight binding;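 further: DESeq read counts versus GST-SBP nonspecific binding control pulldown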

| Sequence | binding signal (log2 fold change) |
| --- | --- |
| GGUCACGUCUCAAUCAACUCAUUCUCAGGAGUUUCCUCCUGCUUUCUCAACAGCUCGCAGUCAAG | 0.054 |
| GGUCACGUCUCAAUCAACUCUUCUUCCAGGGAAAACCCUGGCAUGUUCAACAGCUCGCAGUCAAG | -0.0286 |
| GGUCACGUCUCAAUCAACUCAACUCCAGGAGUUUACUCCUGCUUACUCAACAGCUCGCAGUCAAG | 0.152 |
| GGUCACGUCUCAAUCAACUCAUUCUCAGGAGUUUCCUCCUGUAUUCUCAACAGCUCGCAGUCAAG | -0.0323 |
| GGUCACGUCUCAAUCAACUCAUUCGAGGGGGGGAAAACCCCUUUACCCUCACAAUCAACAGCUCGCAGUCAAG | -0.236 |
| GGUCACGUCUCAAUCAACUCUAUCCCAGGAGUUUCCUCCUGUUUACUCAACAGCUCGCAGUCAAG | 0.267 |
| GGUCACGUCUCAAUCAACUCAUCCUCCAGGGAAACCCCUGGUAAAUUCAACAGCUCGCAGUCAAG | -0.359 |
| GGUCACGUCUCAAUCAACUCUUCUUCCAGGGAAAACCCUGGUAAACUCAACAGCUCGCAGUCAAG | 0.052 |
| GGUCACGUCUCAAUCAACUCAUCUUCCAGGGAAAACCCUGGUAUACUCAACAGCUCGCAGUCAAG | 0.213 |
| GGUCACGUCUCAAUCAACUCAAUGUCAGGAGUUUUCUCCUGCUUUUUCAACAGCUCGCAGUCAAG | 0.15 |
| GGUCACGUCUCAAUCAACUCCACAGAGGGGGGGAAAACCCCUUUACCCUCACUAUCAACAGCUCGCAGUCAAG | -0.184 |
| GGUCACGUCUCAAUCAACUCUAUCUCCAGGGAAAACCCUGGCAUACUCAACAGCUCGCAGUCAAG | 0.00975 |
| GGUCACGUCUCAAUCAACUCAUCUCCCAGGGAAAGCCCUGGCAAAUUCAACAGCUCGCAGUCAAG | 0.197 |
| GGUCACGUCUCAAUCAACUCAUCCUCCAGGGAAAUCCCUGGCUAAUUCAACAGCUCGCAGUCAAG | 0.108 |
| GGUCACGUCUCAAUCAACUCAUUUUCCAGGGAAAUCCCUGGUUUAUUCAACAGCUCGCAGUCAAG | -0.0607 |
| GGUCACGUCUCAAUCAACUCAUCUCCAGGAGUUUCCUCCUGUAUAUUCAACAGCUCGCAGUCAAG | -0.0762 |
| GGUCACGUCUCAAUCAACUCAGUUUCAGGAGUUUCCUCCUGCUUAUUCAACAGCUCGCAGUCAAG | -0.0357 |
| GGUCACGUCUCAAUCAACUCUUCGUCAGGAGUUUUCUCCUGCUAUCUCAACAGCUCGCAGUCAAG | -0.0622 |
| GGUCACGUCUCAAUCAACUCAUCCUCCAGGGAAAUCCCUGGCUAUUUCAACAGCUCGCAGUCAAG | -0.0352 |
| GGUCACGUCUCAAUCAACUCCCCAGAGGGGGGGAAAACCCCUUUGCCCUCAUAUUCAACAGCUCGCAGUCAAG | 0.119 |
| GGUCACGUCUCAAUCAACUCUUCCUCCAGGGAAAGCCCUGGUUAAUUCAACAGCUCGCAGUCAAG | -0.0591 |
| GGUCACGUCUCAAUCAACUCAGUCUCAGGAGUUUACUCCUGCAUAUUCAACAGCUCGCAGUCAAG | 0.013 |
| GGUCACGUCUCAAUCAACUCUACUUCCAGGGAAACCCCUGGCAUACUCAACAGCUCGCAGUCAAG | 0.0751 |
| GGUCACGUCUCAAUCAACUCUUCUUCCAGGGAAACCCCUGGCUUUCUCAACAGCUCGCAGUCAAG | -0.0101 |

| Sequence | binding signal (log2 fold change) |
| --- | --- |
| GGUCACGUCUCAAUCAACUCAAUCGCAGGAGUUUUCUCCUGGUUUUUCAACAGCUCGCAGUCAAG | 0.0408 |
| GGUCACGUCUCAAUCAACUCAUUUCCCAGGGAAAGCCCUGGCUUUUUCAACAGCUCGCAGUCAAG | -0.254 |
| GGUCACGUCUCAAUCAACUCAUCUCCAGGAGUUUCCUCCUGCUAAUUCAACAGCUCGCAGUCAAG | -0.0268 |
| GGUCACGUCUCAAUCAACUCAAGUCCCAGGGAAACCCCUGGCAAUCUCAACAGCUCGCAGUCAAG | -0.153 |
| GGUCACGUCUCAAUCAACUCAGUCUCAGGAGUUUCCUCCUGCUAUCUCAACAGCUCGCAGUCAAG | 0.0706 |
| GGUCACGUCUCAAUCAACUCUCUAGAGGGGGGGAAAACCCCUUUGCCCUCGUAAUCAACAGCUCGCAGUCAAG | -0.268 |
| GGUCACGUCUCAAUCAACUCAUACGAGGGGGGGAAAACCCCUUUACCCUCUCCAUCAACAGCUCGCAGUCAAG | 0.329 |
| GGUCACGUCUCAAUCAACUCUACUCCAGGAGUUUUCUCCUGCUUAUUCAACAGCUCGCAGUCAAG | 0.0693 |
| GGUCACGUCUCAAUCAACUCUCAAGAGGGGGGGAAAACCCCUUUACCCUCCACAUCAACAGCUCGCAGUCAAG | 0.085 |
| GGUCACGUCUCAAUCAACUCAACUCCAGGAGUUUACUCCUGUUUAUUCAACAGCUCGCAGUCAAG | 0.152 |
| GGUCACGUCUCAAUCAACUCCCUCGAGGGGGGGAAAACCCCUUUACCCUCACAAUCAACAGCUCGCAGUCAAG | 0.076 |
| GGUCACGUCUCAAUCAACUCAUAAGAGGGGGGGAAAACCCCUUUACCCUCAAAUUCAACAGCUCGCAGUCAAG | -0.5 |
| GGUCACGUCUCAAUCAACUCAAUCUCAGGAGUUUCCUCCUGCUAUGUCAACAGCUCGCAGUCAAG | 0.141 |
| GGUCACGUCUCAAUCAACUCAACUCCAGGAGUUUUCUCCUGCUUUUUCAACAGCUCGCAGUCAAG | -0.095 |
| GGUCACGUCUCAAUCAACUCAUCCGCAGGAGUUUACUCCUGGUAUCUCAACAGCUCGCAGUCAAG | 0.0251 |
| GGUCACGUCUCAAUCAACUCAACUUCAGGAGUUUCCUCCUGCUUACUCAACAGCUCGCAGUCAAG | 0.125 |
| GGUCACGUCUCAAUCAACUCUAUCUCAGGAGUUUACUCCUGUAAUUUCAACAGCUCGCAGUCAAG | 0.0635 |
| GGUCACGUCUCAAUCAACUCAUUCUCAGGAGUUUUCUCCUGUAUUUUCAACAGCUCGCAGUCAAG | 0.152 |
| GGUCACGUCUCAAUCAACUCAACUUCAGGAGUUUACUCCUGUUUUUUCAACAGCUCGCAGUCAAG | -0.137 |
| GGUCACGUCUCAAUCAACUCUUUCUCAGGAGUUUCCUCCUGCUAAUUCAACAGCUCGCAGUCAAG | -0.0291 |
| GGUCACGUCUCAAUCAACUCAACUUCCAGGGAAAGCCCUGGCAAUCUCAACAGCUCGCAGUCAAG | 0.108 |
| GGUCACGUCUCAAUCAACUCUCCUGAGGGGGGGAAAACCCCUUUACCCUCUAUUUCAACAGCUCGCAGUCAAG | 0.0761 |
| GGUCACGUCUCAAUCAACUCACUAGAGGGGGGGAAAACCCCUUUGCCCUCAACCUCAACAGCUCGCAGUCAAG | 0.0561 |
